From article PMC4336329 (PLoS ONE, 2015)
Among all 310,000 compounds or so, about 14,000 (4.5%) showed an effect of 50% or more. Effects have a minus sign here. The list shows a part of the results.

Each molecule was assayed against human ether-à-go-go-related gene (hERG) potassium channel (human, UniProt Q12809) (assay: primary screen, population patch clamp on CHO cells stably expressing hERG).
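Note: peak tail current of the secondary pulse compared with the same well before compound.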

Chain of human ether-à-go-go-related gene (hERG) potassium channel (Q12809 whole entry, looked up): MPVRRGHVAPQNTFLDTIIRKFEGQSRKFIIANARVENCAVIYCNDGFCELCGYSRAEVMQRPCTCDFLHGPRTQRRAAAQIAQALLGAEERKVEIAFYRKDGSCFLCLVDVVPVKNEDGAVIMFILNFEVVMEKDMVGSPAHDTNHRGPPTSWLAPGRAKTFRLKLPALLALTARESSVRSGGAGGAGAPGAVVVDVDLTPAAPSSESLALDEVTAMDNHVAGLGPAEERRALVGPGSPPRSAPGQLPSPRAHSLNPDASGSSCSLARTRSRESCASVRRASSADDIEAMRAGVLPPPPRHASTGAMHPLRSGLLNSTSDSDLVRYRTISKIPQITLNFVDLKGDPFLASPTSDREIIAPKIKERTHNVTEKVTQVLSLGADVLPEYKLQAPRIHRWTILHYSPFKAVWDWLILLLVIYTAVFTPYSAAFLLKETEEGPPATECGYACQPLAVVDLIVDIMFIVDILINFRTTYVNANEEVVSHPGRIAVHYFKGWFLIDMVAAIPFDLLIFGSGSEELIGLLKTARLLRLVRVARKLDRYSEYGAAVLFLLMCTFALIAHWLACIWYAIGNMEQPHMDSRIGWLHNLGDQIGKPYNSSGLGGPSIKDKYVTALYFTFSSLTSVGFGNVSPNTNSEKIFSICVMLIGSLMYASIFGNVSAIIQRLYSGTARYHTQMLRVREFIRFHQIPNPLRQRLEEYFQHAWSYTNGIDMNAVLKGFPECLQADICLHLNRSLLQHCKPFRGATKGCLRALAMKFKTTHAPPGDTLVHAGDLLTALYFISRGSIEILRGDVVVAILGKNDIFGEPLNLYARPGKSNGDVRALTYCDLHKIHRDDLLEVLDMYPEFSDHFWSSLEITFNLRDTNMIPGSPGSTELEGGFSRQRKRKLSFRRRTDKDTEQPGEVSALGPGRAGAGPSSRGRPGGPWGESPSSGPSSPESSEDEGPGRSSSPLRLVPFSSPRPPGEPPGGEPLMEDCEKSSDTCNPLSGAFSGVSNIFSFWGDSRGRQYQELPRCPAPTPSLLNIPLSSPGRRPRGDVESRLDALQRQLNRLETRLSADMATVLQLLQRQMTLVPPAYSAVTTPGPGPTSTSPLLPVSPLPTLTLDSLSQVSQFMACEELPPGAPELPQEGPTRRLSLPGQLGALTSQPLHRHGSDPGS

SMILES	hERG current change (%, negative = inhibition) at 10uM
COc1ccccc1NC(=O)c1cnc(SCC(=O)NCC2CCCO2)n(C)c1=O (centres unmarked)	-6.13%
Cc1occc1C(=O)NCc1cccs1	-21.2%
Cn1nccc1NC(=O)c1nccnc1C(=O)O	4.4%
CC(C)n1ncc2c(C(=O)Nc3ccc(CC#N)cc3)cc(C3CC3)nc21	17.3%
COc1cc(/C=N/NC(=O)CCn2nnc3ccccc32)ccc1O	20.4%
CSc1ncccc1C(=O)NC1CCN(Cc2ccccc2)CC1	-14.5%
CCCCOc1ccc(C(=O)NCC(=O)OC2CCOC2=O)cc1 (centres unmarked)	4.84%
CCOC(=O)c1c(NC(=O)CN2C(=O)NC3(CCCC3)C2=O)sc(C)c1CC	-4.59%
COC(=O)c1ccc2nc(-c3ccc(S(C)(=O)=O)cc3)cn2c1	-29.2%
COCCNC(=S)NC(=O)c1ccc(C(C)(C)C)cc1	-29.7%
Nc1c(O)ccc2c1C(=O)c1ccccc1C2=O	22.3%
Nn1c(COc2ccc(Cl)cc2)n[nH]c1=S	4.74%
CN(Cc1cccnc1)Cc1cn[nH]c1-c1ccc(-c2ccccc2)cc1	-56.7%
COC(=O)C1CSC(C(=O)OC)N1C(=O)Nc1ccc(Cl)cc1 (centres unmarked)	2.1%
Cc1ccccc1OCC(=O)N(Cc1ccc(N(C)C)cc1)C1CCS(=O)(=O)C1 (centres unmarked)	-14.2%
COc1ccc(C2=NN(S(=O)(=O)c3ccccc3)C(c3ccccc3)C2)cc1 (centres unmarked)	25.3%
CCOC(=O)c1cc2c(C(F)(F)F)cc(-c3cccnc3)nc2o1	10.2%
Cc1sc2nc(SCC(=O)N3CCOCC3)[nH]c(=O)c2c1-c1ccccc1	-4.3%
S=c1[nH]cc(-c2ccc(Cl)cc2)n1Cc1ccccc1	23.6%
COc1ccc(C(N)=S)cc1	6.41%
O=C1N(c2cccc(Cl)c2)C(c2ccccc2)N2CCCN12 (centres unmarked)	-7.49%
O=C(CN1CCC(Cc2ccccc2)CC1)N1CCc2ccccc2C1	-69.3%
CC(=O)N1c2ccc(Cl)cc2C2C=CCC2C1c1cccc2ccccc12 (centres unmarked)	20.3%
COc1ccc2c(c1OC)C[N+]1([O-])CCc3cc4c(cc3C1C2)OCO4 (centres unmarked)	-7.89%
Cc1ccc(C(=O)N2CCN3C(=O)c4ccccc4C23c2ccccc2)cc1 (centres unmarked)	-12.8%
CC(=O)Nc1ccccc1C(=O)N1CCN(Cc2ccccc2)CC1	5.02%
